# According to the supplement of paper PMC10320760:
# The data scatter; read single values as rough.
# B1: Ydj1; a variant is named by its letters at X, in order (parent)
# chain: MVKETKFYDILGVPVTATDVEIKKAYRKCALKYHPDKNPSEEAAEKFKEASAAYEILSDPEKRDIYDQFGEDGLSGAGGAGGFPGGGFGFGDDIFSQFFGAGGAQRPRGPQRGKDIKHEISASLEELYKGRTAKLALNKQILCKECEGRGGKKGAVKKCTSCNGQGIKFVTRQMGPMIQRFQTECDVCHGTGDIIDPKDRCKSCNGKKVENERKILEVHVEPGMKDGQRIVFKGEADQAPDVIPGDVVFIVSERPHKSFKRDGDDLVYEAEIDLLTAIAGGEFALEHVSGDWLKVGIVPGEVIAPGMRKVIEGKGMPIPKYGGYGNLIIKFTIKFPENHFTSEENLKKLEEILPPRIVPAIPKKATVDECVLADFDPAKYNRTRASRGGANYDSDEEEQGGEGVQCXXX
# Variants of: B1
# Assay: enrichment factor, frequency at 37 °C / frequency at 25 °C (thermotolerance selection) (ratio); higher = more growth at 37 °C, higher likelihood of farnesylation
# Details: with Saccharomyces cerevisiae ydj1Δ (yWS304); selective temperature 37 °C; reference temperature 25 °C
row,Variant,enrichment factor
1,WNV,1.25
2,WNS,1.56
3,WNT,1.5
4,WNR,0.852
5,WNY,1.08
6,WNW,1.9
7,NPF,0.989
8,NPC,1.05
9,NPD,1.15
10,NPG,1.56
11,NPH,1.42
12,NPI,1.86
13,NPK,0.238
14,NPL,1.63
15,NPA,1.86
16,NPE,0.219
17,NPM,1.47
18,GPH,0.211
19,GPD,0.175
20,GPG,0.967
21,GPC,0.599
22,GPL,0.492
23,GPI,1.59
24,GPM,1.97

row,Variant,enrichment factor
1,GPE,0.166
2,GPF,2.05
3,GPK,0.0862
4,GPA,1.51
5,GNV,0.56
6,GNY,0.146
7,GNS,1.81
8,GNW,0.225
9,GNT,0.36
10,WPE,1.58
11,WPI,1.07
12,WPK,0.245
13,WPA,0.837
14,WPL,1.05
15,WPF,0.913
16,WPG,1.1
17,WPH,1.52
18,WPC,0.113
19,WPD,2.29
20,PPI,1.35
21,PPF,1.22
22,PPA,1.69
23,PPL,0.673
24,PPG,1.74

row,Variant,enrichment factor
1,PPH,1.14
2,PPC,1.69
3,PPM,1.55
4,PPD,0.513
5,PPE,0.127
6,PPK,0.227
7,SPH,1.87
8,SPG,3.77
9,SPI,1.75
10,SPF,1.08
11,SPE,0.433
12,SPL,2
13,SPD,1.34
14,SPK,0.149
15,SPC,0.72
16,SPA,1.84
17,SPM,1.46
18,HNY,0.503
19,HNW,0.389
20,HNR,0.204
21,HNT,1.65
22,HNV,1.92
23,HNS,1.74
24,EPM,1.61

row,Variant,enrichment factor
1,EPL,0.686
2,EPF,1.22
3,EPK,0.0902
4,EPH,0.3
5,EPA,1.24
6,EPD,0.297
7,EPC,1.66
8,EPG,0.961
9,EPI,1.48
10,EPE,0.249
11,VPA,3.01
12,VPF,2.32
13,VPG,2.16
14,VPL,1.9
15,VPI,2.37
16,VPK,0.193
17,VPE,0.616
18,VPH,1.83
19,VPD,1.92
20,VPM,2.77
21,VPC,1.7
22,TPA,2.56
23,TPD,1.82
24,TPL,1.82

row,Variant,enrichment factor
1,TPE,0.822
2,TPF,1.99
3,TPG,1.46
4,TPM,1.93
5,TPC,0.714
6,TPK,0.102
7,TPI,1.7
8,TPH,1.79
9,INW,0.68
10,INV,3.24
11,INS,1.76
12,INT,1.4
13,INY,1.24
14,INR,0.0754
15,CPK,0.0832
16,CPG,2.7
17,CPL,1.41
18,CPM,1.31
19,CPC,0.352
20,CPD,1.83
21,CPF,0.651
22,CPA,1.83
23,CPH,1.84
24,CPE,0.472

row,Variant,enrichment factor
1,CPI,0.392
2,SNW,0.362
3,SNY,0.973
4,SNV,1.4
5,SNR,0.16
6,SNT,1.48
7,SNS,1.4
8,MNV,1.57
9,MNT,1.19
10,MNS,1.23
11,MNR,0.117
12,MNW,0.559
13,MNY,0.462
14,TNT,2.19
15,TNR,0.196
16,TNY,1.61
17,TNV,1.58
18,TNW,0.883
19,TNS,1.62
20,APF,0.957
21,APM,1.6
22,APA,2.08
23,APK,0.144
24,APD,2.67

row,Variant,enrichment factor
1,APC,0.888
2,APH,1.47
3,API,1.71
4,APE,0.495
5,APG,2.73
6,APL,2.15
7,YPF,1.08
8,YPD,0.914
9,YPH,0.984
10,YPK,0.144
11,YPI,2.26
12,YPE,0.15
13,YPG,2.28
14,YPC,1.74
15,YPA,4.06
16,YPL,2.44
17,FNY,0.691
18,FNW,1.12
19,FNV,1.39
20,FNS,1.34
21,FNT,1.65
22,VNV,1.99
23,VNR,0.196
24,VNY,2.15

row,Variant,enrichment factor
1,VNT,1.44
2,VNW,1.46
3,VNS,1.2
4,HPH,1.44
5,HPM,1.67
6,HPF,1.53
7,HPL,1.62
8,HPG,2.58
9,HPK,0.2
10,HPE,0.257
11,HPA,2.38
12,HPI,1.84
13,HPC,1.95
14,HPD,1.12
15,IPL,1.58
16,IPH,1.79
17,IPA,1.84
18,IPC,1.05
19,IPK,0.084
20,IPD,1.66
21,IPE,0.808
22,IPM,2.32
23,IPF,3.24
24,IPI,3.01

row,Variant,enrichment factor
1,IPG,1.75
2,KNT,1.43
3,KNS,1.6
4,KNR,0.182
5,KNW,0.517
6,KNV,1.61
7,KNY,0.582
8,YNY,0.448
9,YNW,0.774
10,YNR,0.103
11,YNS,2.25
12,YNV,1.75
13,YNT,1.55
14,DPL,0.203
15,DPF,1.77
16,DPI,0.639
17,DPC,1.52
18,DPD,0.154
19,DPK,0.198
20,DPA,0.895
21,DPH,0.18
22,DPM,1.5
23,DPE,0.178
24,DPG,0.777

row,Variant,enrichment factor
1,LPL,1.52
2,LPI,1.59
3,LPF,2.1
4,LPG,1.58
5,LPK,0.225
6,LPD,1.3
7,LPE,0.263
8,LPH,2.04
9,LPA,2.02
10,LPC,0.22
11,LPM,2.06
12,NNR,0.0781
13,NNY,0.415
14,NNT,1.39
15,NNS,1.67
16,NNV,1.43
17,NNW,0.413
18,DNT,0.146
19,DNS,0.269
20,DNV,0.226
21,DNW,0.299
22,DNY,0.186
23,QPL,2.03
24,QPK,0.165

row,Variant,enrichment factor
1,QPI,2.08
2,QPC,2.29
3,QPF,1.78
4,QPH,1.78
5,QPG,2.18
6,QPM,1.99
7,QPA,1.76
8,QPD,1.31
9,QPE,0.187
10,RPM,2.43
11,RPK,0.14
12,RPD,1.85
13,RPC,0.275
14,RPF,0.985
15,RPE,0.788
16,RPL,1.68
17,RPH,1.45
18,RPI,1.39
19,RPA,1.62
20,RPG,1.73
21,MPL,1.69
22,MPI,2
23,MPM,1.33
24,MPE,0.313

row,Variant,enrichment factor
1,MPC,0.47
2,MPF,0.842
3,MPA,1.82
4,MPH,1.27
5,MPD,0.983
6,MPG,2.66
7,MPK,0.245
8,QNS,1.95
9,QNR,0.108
10,QNW,1.26
11,QNV,2.03
12,QNY,0.667
13,QNT,1.73
14,PNY,1.06
15,PNS,1.64
16,PNV,1.72
17,PNR,0.188
18,PNT,1.4
19,PNW,0.4
20,CNW,0.288
21,CNR,0.233
22,CNS,1.55
23,CNV,0.386
24,CNT,1.71

row,Variant,enrichment factor
1,CNY,0.776
2,LNY,0.919
3,LNR,0.207
4,LNW,1.08
5,LNS,1.35
6,LNT,1.37
7,LNV,1.61
8,RNR,0.13
9,RNT,1.37
10,RNW,0.943
11,RNY,1.08
12,RNV,1.56
13,RNS,1.42
14,ENT,0.883
15,ENY,0.942
16,ENW,0.394
17,ENV,1.21
18,ENS,1.23
19,FPL,2.06
20,FPD,0.75
21,FPH,1.22
22,FPK,0.192
23,FPG,1.51
24,FPE,0.24

row,Variant,enrichment factor
1,FPF,1.85
2,FPC,0.148
3,FPA,2.06
4,FPI,2.53
5,FPM,1.56
6,ANW,1.42
7,ANS,1.79
8,ANY,1.86
9,ANT,1.83
10,ANR,0.116
11,ANV,1.78
12,KPI,1.44
13,KPA,1.42
14,KPL,1.02
15,KPD,2.29
16,KPC,0.76
17,KPK,0.127
18,KPG,2
19,KPF,1.57
20,KPE,0.381
21,KPH,1.43
22,KPM,1.97
